Experimental data as given in PMC9911399, “Two distinct binding modes provide the RNA-binding protein RbFox with extraordinary sequence specificity”.
Positions count from the first letter of the chain named. This is one part of the list.

T1: RBFOX1 RRM (Homo sapiens, UniProt Q9NWB1 109-208)
T1 sequence: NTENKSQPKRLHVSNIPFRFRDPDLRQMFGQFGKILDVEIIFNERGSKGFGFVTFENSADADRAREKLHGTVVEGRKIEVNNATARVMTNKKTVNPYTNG

B1: UAUUGAA (DNA:RNA)
RNA: GGGAGACCGGAAUUCAGAUUGUCCUAUUGAAUUAAAUCCCGUCGUAGCCACCA
DNA 1: CAATCTGAATTCCGGTCTCCC
DNA 2: TGGTGGCTACGACGGGATT
B2: AGCGAAG (DNA:RNA)
RNA: B1 RNA with U25A, A26G, U27C, U28G, G29A, A31G
DNA 1: CAATCTGAATTCCGGTCTCCC
DNA 2: TGGTGGCTACGACGGGATT
B3: AUCUCAC (DNA:RNA)
RNA: B1 RNA with U25A, A26U, U27C, G29C, A31C
DNA 1: CAATCTGAATTCCGGTCTCCC
DNA 2: TGGTGGCTACGACGGGATT
B4: GGUGAGU (DNA:RNA)
RNA: B1 RNA with U25G, A26G, U28G, G29A, A30G, A31U
DNA 1: CAATCTGAATTCCGGTCTCCC
DNA 2: TGGTGGCTACGACGGGATT
B5: UCCGGCU (DNA:RNA)
RNA: B1 RNA with A26C, U27C, U28G, A30C, A31U
DNA 1: CAATCTGAATTCCGGTCTCCC
DNA 2: TGGTGGCTACGACGGGATT
B6: GUCUCUG (DNA:RNA)
RNA: B1 RNA with U25G, A26U, U27C, G29C, A30U, A31G
DNA 1: CAATCTGAATTCCGGTCTCCC
DNA 2: TGGTGGCTACGACGGGATT
B7: CGAUUCC (DNA:RNA)
RNA: B1 RNA with U25C, A26G, U27A, G29U, A30C, A31C
DNA 1: CAATCTGAATTCCGGTCTCCC
DNA 2: TGGTGGCTACGACGGGATT
B8: UCUAUUG (DNA:RNA)
RNA: B1 RNA with A26C, U28A, G29U, A30U, A31G
DNA 1: CAATCTGAATTCCGGTCTCCC
DNA 2: TGGTGGCTACGACGGGATT
B9: GUUUAUC (DNA:RNA)
RNA: B1 RNA with U25G, A26U, G29A, A30U, A31C
DNA 1: CAATCTGAATTCCGGTCTCCC
DNA 2: TGGTGGCTACGACGGGATT
B10: AUCCCGU (DNA:RNA)
RNA: GGGAGACCGGAAUUCAGAUUGUCCAUCCCGUUUAAAUCCCGUCGUAGCCACCA
DNA 1: CAATCTGAATTCCGGTCTCCC
DNA 2: TGGTGGCTACGACGGGATT
B11: CACAGUA (DNA:RNA)
RNA: B1 RNA with U25C, U27C, U28A, A30U
DNA 1: CAATCTGAATTCCGGTCTCCC
DNA 2: TGGTGGCTACGACGGGATT
B12: CGCAGAG (DNA:RNA)
RNA: B1 RNA with U25C, A26G, U27C, U28A, A31G
DNA 1: CAATCTGAATTCCGGTCTCCC
DNA 2: TGGTGGCTACGACGGGATT
B13: GCGAAAG (DNA:RNA)
RNA: B1 RNA with U25G, A26C, U27G, U28A, G29A, A31G
DNA 1: CAATCTGAATTCCGGTCTCCC
DNA 2: TGGTGGCTACGACGGGATT
B14: AGAAAUG (DNA:RNA)
RNA: B10 RNA with U26G, C27A, C28A, C29A, G30U, U31G
DNA 1: CAATCTGAATTCCGGTCTCCC
DNA 2: TGGTGGCTACGACGGGATT
B15: UUCCCCC (DNA:RNA)
RNA: B10 RNA with A25U, G30C, U31C
DNA 1: CAATCTGAATTCCGGTCTCCC
DNA 2: TGGTGGCTACGACGGGATT
B16: CCUGCCU (DNA:RNA)
RNA: B10 RNA with A25C, U26C, C27U, C28G, G30C
DNA 1: CAATCTGAATTCCGGTCTCCC
DNA 2: TGGTGGCTACGACGGGATT
B17: CUGACCC (DNA:RNA)
RNA: B10 RNA with A25C, C27G, C28A, G30C, U31C
DNA 1: CAATCTGAATTCCGGTCTCCC
DNA 2: TGGTGGCTACGACGGGATT
B18: CGAUCGA (DNA:RNA)
RNA: B10 RNA with A25C, U26G, C27A, C28U, U31A
DNA 1: CAATCTGAATTCCGGTCTCCC
DNA 2: TGGTGGCTACGACGGGATT
B19: GCUGUGG (DNA:RNA)
RNA: B10 RNA with A25G, U26C, C27U, C28G, C29U, U31G
DNA 1: CAATCTGAATTCCGGTCTCCC
DNA 2: TGGTGGCTACGACGGGATT
B20: GCGCUCG (DNA:RNA)
RNA: B10 RNA with A25G, U26C, C27G, C29U, G30C, U31G
DNA 1: CAATCTGAATTCCGGTCTCCC
DNA 2: TGGTGGCTACGACGGGATT

Molecular target: T1, RBFOX1 RRM
Test: EMSA; HiTS-Eq, 1 nM pool, 10 min; buffer printed only for the single-RNA assays: 10 mM Tris pH 7.5, 150 mM NaCl, 3.4 mM EDTA, 0.001% NP-40, 30 C
Conditions: tags: His6 N-terminal (pET28a); label: 5' 32P
Summary of the method: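 Purified wild-type or mutant RbFox RRM at increasing concentrations was equilibrated with 1 nM of 5′-radiolabelled RNA carrying 7 randomized nucleotides for 10 min in 50 µL. Unbound RNA was separated by 8% native PAGE and sequenced. Relative association constants came from read-count changes of each RNA species compared with the control reaction, normalised to the cognate motif.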

| Binder | binding signal |
| --- | --- |
| B1 | 0.0163 KA relative to UGCAUGU |
| B2 | 0.0166 KA relative to UGCAUGU |
| B3 | 0.000969 KA relative to UGCAUGU |
| B4 | 0.0101 KA relative to UGCAUGU |
| B5 | 0.0112 KA relative to UGCAUGU |
| B6 | 0.023 KA relative to UGCAUGU |
| B7 | 0.00698 KA relative to UGCAUGU |
| B8 | 0.0161 KA relative to UGCAUGU |
| B9 | 0.0122 KA relative to UGCAUGU |
| B10 | 0.00434 KA relative to UGCAUGU |
| B11 | 0.00127 KA relative to UGCAUGU |
| B12 | 0.0114 KA relative to UGCAUGU |
| B13 | 0.0143 KA relative to UGCAUGU |
| B14 | 0.0139 KA relative to UGCAUGU |
| B15 | 0.00547 KA relative to UGCAUGU |
| B16 | 0.0189 KA relative to UGCAUGU |
| B17 | 0.00393 KA relative to UGCAUGU |
| B18 | 0.0185 KA relative to UGCAUGU |
| B19 | 0.0191 KA relative to UGCAUGU |
| B20 | 0.0293 KA relative to UGCAUGU |
